The list shows a part of the results. Repeats are few or missing, and single values can be far off.
Experiments:
Experiment in all cases: cell count relative to DMSO control; melanoma cells; higher = more viable cells
Conditions in all cases: library dose: low library concentration; 72 h
MZ2-MEL = test system: MZ2-MEL
MeWo = test system: MeWo
RPMI7951 = test system: RPMI7951
RVH-421 = test system: RVH-421
SkMel28 = test system: SkMel28
SkMel2 = test system: SkMel2
SkMel30 = test system: SkMel30
SkMel5 = test system: SkMel5
UACC257 = test system: UACC257
UACC62 = test system: UACC62
WM1716 = test system: WM1716
WM1745 = test system: WM1745
WM3526 = test system: WM3526
WM3619 = test system: WM3619
WM451Lu = test system: WM451Lu
WM115 = test system: WM115
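Note: cell number obtained by counting DAPI-stained nuclei in high-throughput microscope images with image analysis software, screen run in 1,536-well plates.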

Row | Compound | cell count (MZ2-MEL) [%] | cell count (MeWo) [%] | cell count (RPMI7951) [%] | cell count (RVH-421) [%] | cell count (SkMel28) [%] | cell count (SkMel2) [%] | cell count (SkMel30) [%] | cell count (SkMel5) [%] | cell count (UACC257) [%] | cell count (UACC62) [%] | cell count (WM1716) [%] | cell count (WM1745) [%] | cell count (WM3526) [%] | cell count (WM3619) [%] | cell count (WM451Lu) [%] | cell count (WM115) [%]
1 | N#CC[C@H](C1CCCC1)n1cc(-c2ncnc3[nH]ccc23)cn1 [ruxolitinib] + O=C(O)C(=O)Nc1sc2c(c1C(=O)O)CCNC2 [TCS401] (first compound 1 µM, partner dose 1.66667 µM) | 98.6 | 86.6 | 116 | 104 | 98.2 | 90.8 | 76.2 | 90.2 | 76.8 | 100 | 109 | 96.9 | 87.4 | 81.5 | 97.2 | –
2 | Cc1cc(Nc2cc(N3CCN(C)CC3)nc(Sc3ccc(NC(=O)C4CC4)cc3)n2)n[nH]1 [Tozasertib] + Cn1cncc1[C@@](N)(c1ccc(Cl)cc1)c1ccc2c(c1)c(-c1cccc(Cl)c1)cc(=O)n2C [tipifarnib] (first compound 0.006 µM, partner dose 0.01 µM) | 114 | 96.5 | 89.9 | 103 | 70.8 | 89.4 | 131 | 83 | 85.2 | 83.7 | 84.7 | 90.8 | 99.7 | 97.7 | 82.9 | 92.4
3 | CC[C@]1(O)C[C@H]2CN(CCc3c([nH]c4ccccc34)[C@@](C(=O)OC)(c3cc4c(cc3OC)N(C=O)[C@H]3[C@@](O)(C(=O)OC)[C@H](OC(C)=O)[C@]5(CC)C=CCN6CC[C@]43[C@@H]65)C2)C1 [vincristine] + CN(C)S(=O)(=O)c1ccc2c(c1)/C(=C/c1cc3c([nH]1)CCCC3)C(=O)N2 [SU6656] (first compound 0.0001 µM, partner dose 0.4 µM) | 92.5 | 83.4 | 71.2 | 76.5 | 58.8 | 103 | 51.3 | 78.8 | 34 | 74.1 | 46.5 | 84.4 | 47.2 | 55.7 | 54.7 | 29.9
4 | Cc1cc(Nc2cc(N3CCN(C)CC3)nc(Sc3ccc(NC(=O)C4CC4)cc3)n2)n[nH]1 [Tozasertib] + O=C(Nc1cccc(Cl)c1)Nc1ncc(CCNc2ncnc3ccsc23)s1 [SNS314] (first compound 0.006 µM, partner dose 0.0008 µM) | 102 | 89.2 | 104 | 101 | 92.1 | 101 | 105 | 90.4 | 99.8 | 83.4 | 100 | 78 | 87.4 | 114 | 100 | 75.5
5 | Cc1cc(Nc2cc(N3CCN(C)CC3)nc(Sc3ccc(NC(=O)C4CC4)cc3)n2)n[nH]1 [Tozasertib] + C[C@]1(c2nc3c(C(N)=O)cccc3[nH]2)CCCN1 [Veliparib] (first compound 0.006 µM, partner dose 1.4 µM) | 94.9 | 88.5 | 80.8 | 88.1 | 74.2 | 85.2 | 85 | – | – | 81.9 | 78 | 79.9 | 97.9 | 65.4 | 113 | 84.6
6 | CC[C@]1(O)C[C@H]2CN(CCc3c([nH]c4ccccc34)[C@@](C(=O)OC)(c3cc4c(cc3OC)N(C=O)[C@H]3[C@@](O)(C(=O)OC)[C@H](OC(C)=O)[C@]5(CC)C=CCN6CC[C@]43[C@@H]65)C2)C1 [vincristine] + COc1ccc(-c2ccc3c(N4CCOCC4)nc(N4C[C@@H](C)O[C@@H](C)C4)nc3n2)cc1CO [KU0063794] (first compound 0.0001 µM, partner dose 0.02 µM) | 92.7 | 83.3 | 67.4 | 94.9 | 79.6 | 94.7 | 63.4 | 87.9 | 58.9 | 67.3 | 48.5 | 94.9 | 73.8 | 75.3 | 65.1 | 58.7
7 | N#CC[C@H](C1CCCC1)n1cc(-c2ncnc3[nH]ccc23)cn1 [ruxolitinib] + CC(C)CCN1c2nc(Nc3cc(F)c(O)c(F)c3)ncc2N(C)C(=O)C1C [BID1870] (first compound 1 µM, partner dose 0.2 µM) | 106 | 92.1 | 106 | 97.8 | 101 | 102 | 89.5 | – | 99.5 | – | 108 | 107 | 102 | 90 | 106 | 108
8 | N#CC[C@H](C1CCCC1)n1cc(-c2ncnc3[nH]ccc23)cn1 [ruxolitinib] + CCCCCCCCc1ccc(CCC(N)(CO)CO)cc1 [fingolimod] (first compound 1 µM, partner dose 2 µM) | 94.2 | 88.9 | 91.4 | 106 | 129 | 91.1 | 107 | – | – | 106 | 89 | 90 | 83 | 89.1 | 96.3 | 98.9
9 | Cc1cc(Nc2cc(N3CCN(C)CC3)nc(Sc3ccc(NC(=O)C4CC4)cc3)n2)n[nH]1 [Tozasertib] + CC(C)(C)c1cnc(CSc2cnc(NC(=O)C3CCNCC3)s2)o1 [SNS-032] (first compound 0.006 µM, partner dose 0.01 µM) | 94.9 | 92 | 104 | 89.8 | 87.9 | 96.2 | 92.2 | 92.9 | 80.3 | 81.6 | 90.5 | 101 | 93.5 | 96.3 | 89.6 | 83.4
10 | Cc1cc(Nc2cc(N3CCN(C)CC3)nc(Sc3ccc(NC(=O)C4CC4)cc3)n2)n[nH]1 [Tozasertib] + CN(NC(=O)CC(=O)NN(C)C(=S)c1ccccc1)C(=S)c1ccccc1 [STA4783] (first compound 0.006 µM, partner dose 0.006 µM) | 98.3 | 89.1 | 92.3 | 92.4 | 84.8 | 102 | 105 | 86.1 | 81.7 | 68.3 | 56.6 | 55.6 | 98.9 | 69.3 | 96.4 | 74.7
11 | Cc1cc(Nc2cc(N3CCN(C)CC3)nc(Sc3ccc(NC(=O)C4CC4)cc3)n2)n[nH]1 [Tozasertib] + COC(=O)c1sccc1S(=O)(=O)Nc1ccc(Nc2ccccc2)cc1OC [GSK0660] (first compound 0.006 µM, partner dose 1 µM) | 89 | 90.5 | 101 | 74.2 | 78.6 | 103 | 93.2 | 99.8 | 72.9 | 79.3 | 95.4 | 95.4 | 78.7 | 96.4 | 81.7 | 90.6
12 | N#CC[C@H](C1CCCC1)n1cc(-c2ncnc3[nH]ccc23)cn1 [ruxolitinib] + NCC(=O)Nc1ccc(-n2nc(C(F)(F)F)cc2-c2ccc3c(ccc4ccccc43)c2)cc1 [OSU03012] (first compound 1 µM, partner dose 1 µM) | 94.1 | 53.2 | 119 | 74.4 | 68.7 | 69.3 | 49.4 | 84.2 | 72.8 | 98.6 | 82.8 | 98.7 | 62.7 | – | 62 | 98.1
13 | N#CC[C@H](C1CCCC1)n1cc(-c2ncnc3[nH]ccc23)cn1 [ruxolitinib] + O=C(Nc1ccccc1)c1cc([N+](=O)[O-])ccc1Cl [GW9662] (first compound 1 µM, partner dose 2 µM) | 95.7 | 95.3 | 113 | 86.2 | 106 | 98.5 | 87 | 88.2 | 92.2 | 94.3 | 97.9 | 85.2 | 86.7 | 106 | 95.8 | 107
14 | N#CC[C@H](C1CCCC1)n1cc(-c2ncnc3[nH]ccc23)cn1 [ruxolitinib] + Oc1nc(-c2ccc(C(F)(F)F)cc2)nc2c1CSCC2 [XAV939] (first compound 1 µM, partner dose 2 µM) | 99.4 | 111 | 92.5 | 114 | 112 | 104 | 111 | 84.7 | 82.4 | – | 61.4 | 105 | 115 | 137 | 83.8 | 99.2
15 | Cc1cc(Nc2cc(N3CCN(C)CC3)nc(Sc3ccc(NC(=O)C4CC4)cc3)n2)n[nH]1 [Tozasertib] + O=C(CCCCCCC(=O)Nc1ccccc1)NO [vorinostat] (first compound 0.006 µM, partner dose 0.08 µM) | 103 | 89.3 | 114 | 97.4 | 75.5 | 92.5 | 100 | 69 | 103 | 81 | 101 | 91.2 | 83.1 | 86.6 | 70.4 | 86.7
16 | Cc1cc(Nc2cc(N3CCN(C)CC3)nc(Sc3ccc(NC(=O)C4CC4)cc3)n2)n[nH]1 [Tozasertib] + CCCCCCCCc1ccc(CCC(N)(CO)CO)cc1 [fingolimod] (first compound 0.006 µM, partner dose 2 µM) | 89.5 | 97.1 | 98.2 | 106 | 81.9 | 88.8 | 109 | – | – | 88.6 | 86.5 | 90.6 | 90.6 | 86.9 | 92.5 | 98.6
17 | N#CC[C@H](C1CCCC1)n1cc(-c2ncnc3[nH]ccc23)cn1 [ruxolitinib] + CN(c1ncccc1CNc1nc(Nc2ccc3c(c2)CC(=O)N3)ncc1C(F)(F)F)S(C)(=O)=O [PF562271] (first compound 1 µM, partner dose 0.08 µM) | 92.7 | 86.1 | 71.6 | 109 | 85.6 | 89.6 | 95.9 | – | – | 101 | 82.7 | 102 | 97.3 | 101 | 76.5 | 101
18 | N#CC[C@H](C1CCCC1)n1cc(-c2ncnc3[nH]ccc23)cn1 [ruxolitinib] + COc1ccc(COc2ccc(Cc3cnc(N)nc3N)cc2OC)cc1 [GW2580] (first compound 1 µM, partner dose 1 µM) | 107 | 95.3 | 95.4 | 105 | 121 | 113 | 112 | 88 | 82.4 | 89.4 | 103 | 94.2 | – | 84.3 | 92.5 | 123
